# Among all 1,100 compounds or so, about 340 (31%) were called active. Calls come from the whole dose curve; as a rule, active = well fitted inhibition curve with a large enough effect; inconclusive = small, poorly fitted or top-dose-only effect; inactive = flat fitted curve, though single readings scatter. Inconclusive means that the source gave no clear call. Where the call is inconclusive, the potency comes from a doubtful curve fit.
# Target: Phosphatidylinositol 5-phosphate 4-kinase type-2 alpha (Homo sapiens) (UniProt P48426)
# Chain of UniProt P48426 (P48426 whole entry, looked up): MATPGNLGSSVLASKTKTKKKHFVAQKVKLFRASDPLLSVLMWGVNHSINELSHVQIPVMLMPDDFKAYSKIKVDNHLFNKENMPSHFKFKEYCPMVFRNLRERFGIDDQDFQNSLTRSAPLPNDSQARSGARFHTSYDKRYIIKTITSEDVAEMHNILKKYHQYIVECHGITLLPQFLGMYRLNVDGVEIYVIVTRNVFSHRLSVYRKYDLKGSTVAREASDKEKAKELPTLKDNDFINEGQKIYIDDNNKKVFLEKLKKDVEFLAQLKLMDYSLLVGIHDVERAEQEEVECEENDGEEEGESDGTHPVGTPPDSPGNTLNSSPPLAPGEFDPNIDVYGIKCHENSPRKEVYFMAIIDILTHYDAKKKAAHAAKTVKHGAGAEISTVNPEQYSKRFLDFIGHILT
# Assay: qHTS for Inhibitors of PI5P4K: Confirmation in Primary Assay; note: nearly all actives have a fitted effect of over 65% in size
# Conditions: PI5P4Kalpha enzyme, ADP-Glo luminescence, 60 min; series mostly up to 76.9 µM
# Description: In addition to finding PI5P, we discovered the type II phosphatidylinositol 5-phosphate 4-kinase (PI5P4K) family (alpha, beta, gamma isoforms) that catalyze the conversion of PI5P to PI(4,5)P2. Alternatively, PI(4,5)P2 can also be synthesized through phosphatidylinositol-4-phosphate (PI4P) by the type I phosphatidylinositol 4-phosphate 5-kinases (PI4P5K). These PI5P4K enzymes therefore represent one way by which cells can regulate endogenous PI5P levels and play important roles in insulin signaling and in stress responses. […] A qHTS PI5P4K-alpha ADP-Glo assay was developed to identify specific modulators of human PI5P4K, phosphatidylinositol-5-phosphate 4-kinase (Type II PIPK). This assay was screened against the MLSMR containing ~400,000 small molecules (PubChem AID 652105). […]
# 2 microL of PI5P4Kalpha/substrate buffer (columns 1-2, 5-48) are dispensed into Greiner white solid bottom 1536-well assay plates; column 3 receives only PI5P4Kalpha buffer as 0x substrate controls; column 4 receives only substrate buffer as 0x PI5P4Kalpha controls. […] They are then transferred to a ViewLux high-throughput CCD imager (PerkinElmer) wherein single end-point measurements of luminescence are acquired using a clear filter.
# Potency is the fitted concentration of half-maximal effect; tags give direction and shape of the fitted curve.
row,SMILES,Potency
1,Cc1c(CC(=O)O)c(=O)oc2c(C)c3occ(-c4ccc(Br)cc4)c3cc12,"inconclusive: 2510 nM [inhibitor, full curve]"
